Laboratory results taken from PubChem BioAssay AID1768 (National Center for Advancing Translational Sciences (NCATS), 2009).
“And” between values parts separate entries of the source, which are not always exact repeats. Identical values can stand only once. Among all 270,000 compounds or so, about 620 (0.23%) were called active. The inconclusive results got no clear call from the source; some entries with a clear call stand among them for comparison. Calls follow the shape of the dose curve; as a rule, active = well fitted inhibition curve with a large enough effect in the polarisation, with a control signal flat (not every such curve was filed as active); inconclusive = small, poorly fitted or top-dose-only effect, or effect the other way, or a change in a side signal; inactive = no such curve, though single readings can be large or run the other way; the % refers to the polarisation. Potencies of inconclusive entries are doubtful fits and often do not repeat. “Side channel” marks fits to a control or component signal instead of the main read-out.

target: Menin (Homo sapiens) (UniProt O00255); assay: qHTS Assay for Inhibitors Targeting the Menin-MLL Interaction in MLL Related Leukemias: Competition With Texas Red Labeled MLL-derived Mutant Peptide; conditions: fluorescence polarization; series mostly up to 61.6 µM; FP activity change, negative = inhibition: at the top concentration; as to FP activity change, negative = inhibition: % of control where 0% means no effect
Potency is read from the fitted curve at half-maximal effect; tags tell the direction and shape of the fitted curve or compound fluorescence and quenching.

Sequence of UniProt O00255 (O00255 whole entry, looked up): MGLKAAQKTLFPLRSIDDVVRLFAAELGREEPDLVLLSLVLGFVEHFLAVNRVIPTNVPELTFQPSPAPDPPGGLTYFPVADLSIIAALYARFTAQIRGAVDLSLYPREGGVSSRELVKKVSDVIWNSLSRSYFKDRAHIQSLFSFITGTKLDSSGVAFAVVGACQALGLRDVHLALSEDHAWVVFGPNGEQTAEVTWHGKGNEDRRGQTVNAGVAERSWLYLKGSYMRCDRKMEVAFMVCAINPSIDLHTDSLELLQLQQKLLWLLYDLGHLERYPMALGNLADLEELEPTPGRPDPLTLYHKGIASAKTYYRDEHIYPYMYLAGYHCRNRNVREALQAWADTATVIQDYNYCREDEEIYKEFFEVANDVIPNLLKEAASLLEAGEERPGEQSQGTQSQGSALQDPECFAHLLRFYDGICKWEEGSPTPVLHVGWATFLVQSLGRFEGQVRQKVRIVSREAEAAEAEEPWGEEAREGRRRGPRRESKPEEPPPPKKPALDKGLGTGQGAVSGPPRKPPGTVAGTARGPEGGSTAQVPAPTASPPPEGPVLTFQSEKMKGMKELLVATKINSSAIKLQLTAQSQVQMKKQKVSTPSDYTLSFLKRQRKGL

| Compound | Potency | FP activity change, negative = inhibition |
| --- | --- | --- |
| CC(C)(C)c1cc(C=C(C#N)C#N)cc(C(C)(C)C)c1O | inconclusive: 14.1 µM [quencher, side channel, partial curve] |  |
| N=C1/C(=C/c2ccc(OC(=O)c3ccco3)cc2)C(=O)N=C2SC=CN12 | inconclusive: 39.8 µM [quencher, side channel, single point] |  |
| Cc1cc(C(C#N)c2ccc(Cl)cc2)c(Cl)cc1NC(=O)c1cc(I)cc(I)c1O (configuration not stated) | inconclusive: 15.8 µM [quencher, side channel, partial curve] |  |
| O=C(CSc1ccccc1)Nc1ccc(C(=O)Nc2cccc(O)c2)cc1 | inconclusive: 2 µM [quencher, side channel, full curve, poor fit] |  |
| CCOC(=O)C1(CCc2ccccc2)CCN(Cc2cccc3cnccc23)CC1 | inconclusive: 12.6 µM [fluorescent, side channel, partial curve] |  |
| Cc1ccc(NP(=O)(Oc2ccccc2F)Oc2ccccc2F)cc1C | inconclusive: 20 µM [fluorescent, side channel, partial curve] |  |
| CCN(CC)c1ccc(/C=C2/C(=O)NC(=O)N(Cc3ccco3)C2=O)cc1 | inconclusive: 39.8 µM [fluorescent, side channel, single point] |  |
| CCOP(=O)(OCC)C(NCc1ccccc1)c1ccc(Br)cc1 (configuration not stated) | inconclusive: 31.6 µM [fluorescent, side channel, single point] |  |
| C[n+]1ccc(-c2ccncc2)cc1 |  | inactive: 2.11% |
| N#CC(C#N)=Cc1cc(O)c(O)c([N+](=O)[O-])c1 | inconclusive: 39.8 µM [quencher, side channel, partial curve] |  |
| CN1C[C@H](CO)C[C@@H]2c3cccc4[nH]cc(c34)C[C@H]21 |  | inactive: -2.55% |
| COc1ccc(CNCCc2c(C)[nH]c3ccc(OC(F)(F)F)cc23)c(OC)c1 | active: 28.2 µM |  |
| C[C@]12O[C@H](C[C@]1(O)CO)n1c3ccccc3c3c4c(c5c6ccccc6n2c5c31)CNC4=O | inconclusive: 15.8 µM [quencher, side channel, partial curve] |  |
| O=C(O)CCCCC1SCC2NC(=O)NC21 (configuration not stated) | inactive |  |
| COc1ccc(NC(=O)c2cn(CCC#N)nc2-c2cccc(Br)c2)cc1 | inconclusive: 25.1 µM [quencher, side channel, partial curve] |  |
| Cc1cc(NC(=O)COC(=O)c2c(C)nn(Cc3ccccc3Cl)c2Cl)no1 | inconclusive: 31.6 µM [fluorescent, partial curve] |  |
| CCN(CC)c1ccc(CC2C(=O)N(C)C(=O)N(C)C2=O)cc1 | inconclusive: 25.1 µM [fluorescent, side channel, partial curve] |  |
| Cc1ccc(OP(=O)(NC(C)c2ccccc2)Oc2ccc(C)cc2)cc1 (configuration not stated) | inconclusive: 4.47 µM [fluorescent, side channel, full curve] |  |
| Clc1ccc(-c2nc3ccc(Cl)cn3c2CN2CCCCC2)cc1 | inconclusive: 35.5 µM [inhibitor, partial curve] |  |

| Compound | Potency | FP activity change, negative = inhibition |
| --- | --- | --- |
| CNC(=O)OCCc1n(C)cc[n+]1C |  | inactive: -1.47% |
| CCCOP(=O)(c1ccc(N(C)C)cc1)C(O)c1c(Cl)cccc1Cl (configuration not stated) | inconclusive: 31.6 µM [inhibitor, partial curve] |  |
| O=C1NC(=O)C(=Cc2ccc(N3CCOCC3)o2)C(=O)N1 | inconclusive: 10 µM [inhibitor, partial curve] |  |
| CC(C)CCOP(=O)(c1ccc(N(C)C)cc1)C(O)c1ccc(Cl)cc1Cl (configuration not stated) | inconclusive: 7.08 µM [fluorescent, side channel, partial curve] |  |
| CC(=O)c1ccc2c(c1)C1C(Cl)C(Sc3ccccc3[N+](=O)[O-])CC1C(c1ccccc1)N2 (configuration not stated) | inconclusive: 10 µM [quencher, side channel, partial curve] |  |
| CCOC(=O)c1[nH]c2ccc(OC)cc2c1C(SCC(=O)O)c1ccc(C(F)(F)F)cc1 (configuration not stated) | inconclusive: 22.4 µM [quencher, side channel, single point] |  |
| CCOc1cc(C2NCc3ccccc3-n3cccc32)ccc1OC (configuration not stated) | inconclusive: 15.8 µM [inhibitor, partial curve] |  |
| CCOc1cc2c(cc1OCC)-n1cccc1C(c1cccc(OCC)c1O)NC2 (configuration not stated) | inconclusive: 14.1 µM [fluorescent, side channel, partial curve] |  |
| CC1=CC2/C=C(\C)CCC(O)C(O)/C=C/C(=O)C23C(=O)NC(CC(C)C)C3C1C (configuration not stated) | inconclusive: 7.08 µM [fluorescent, side channel, partial curve] |  |
| CCOC(=O)C1(c2ccccc2)CCN(CC(=O)Nc2ccc(C)cc2)CC1 | inconclusive: 12.6 µM [fluorescent, side channel, partial curve] |  |
| COc1ccc(OC)c(NC(=O)C2C(C(=O)O)C3(Cl)C(Cl)=C(Cl)C2(Cl)C3(Cl)Cl)c1 (configuration not stated) | inconclusive: 39.8 µM [quencher, side channel, single point] |  |
| CCCCC1(C2CCCC2)Cc2cc(OCCCC(=O)O)c(Cl)c(Cl)c2C1=O (configuration not stated) | inconclusive: 12.6 µM [quencher, partial curve] and inconclusive: 12.6 µM [quencher, side channel, partial curve] |  |
| CCOc1cc2c(cc1OCC)-n1cccc1C(c1ccc(OC)c(O)c1)NC2 (configuration not stated) | inconclusive: 6.31 µM [inhibitor, full curve] |  |
| C[N+]12CCC(CC1)C(C#N)(N1CCOCC1)C2 (configuration not stated) |  | inactive: -1.89% |
| COc1ccccc1/C=C1\C(=O)NC(=S)N(c2ccccc2)C1=O | inconclusive: 28.2 µM [quencher, side channel, single point] |  |
| CCOP(=O)(OCC)O/C(=C/Cl)c1ccc(Cl)cc1Cl |  | inactive: -12.1% |
| C[C@@H]1O[C@H](C[N+](C)(C)C)CS1 |  | inactive: -4.03% |
| COc1cc(/C=N/NP(=S)(c2ccccc2)c2ccccc2)ccc1O | inconclusive: 31.6 µM [quencher, side channel, partial curve] |  |
| COc1ccc(C(CC(=O)N2CCC3(CC2)OCCO3)NS(=O)(=O)c2ccc(OC)cc2)cc1 (configuration not stated) | inconclusive: 35.5 µM [inhibitor, single point] |  |

| Compound | Potency | FP activity change, negative = inhibition |
| --- | --- | --- |
| Cc1ccc(/C=C2/C(=O)NC(=O)N(CCc3ccc(F)cc3)C2=O)s1 | inconclusive: 7.94 µM [quencher, side channel, full curve, poor fit] |  |
| O=P(NS(=O)(=O)c1ccc(Cl)cc1)(Oc1ccccc1)Oc1ccccc1 | inconclusive: 28.2 µM [quencher, side channel, single point] |  |
| CCCCCCC(C)(C)c1ccc([C@@H]2C[C@H](O)CC[C@H]2CCCO)c(O)c1 | inconclusive: 14.1 µM [fluorescent, side channel, partial curve] |  |
| CN1CC=C2C(C#N)=C(N)C(C#N)(C#N)C(c3ccncc3)C2C1 (configuration not stated) | inconclusive: 31.6 µM [inhibitor, single point] |  |
| CCN1C[C@]2(C)CC[C@H](OC)[C@@]34[C@H]1C1(OCO[C@@]15C[C@H](OC)C1C[C@]3(O)C5[C@H]1OC)[C@@H](O)[C@H]24 | inconclusive: 3.16 µM [quencher, side channel, full curve, poor fit] |  |
| C[C@@]12CCC(Cl)C[C@H]1CCC1C2CC[C@]2(C)C(=O)CCC12 (some centres not stated) | inconclusive: 5.01 µM [fluorescent, side channel, full curve] |  |
| O=C(Cc1c(Cl)cccc1Cl)N1CCN(Cc2ccccc2)CC1 | inconclusive: 31.6 µM [inhibitor, partial curve] |  |
| CN(C)C1CSSSC1 |  | inactive: 2% |
| COc1ccc(CN2CC=C(c3ccc(F)cc3)CC2)cc1Br |  | inactive: 2.88% |
| C=CCN1CC[C@]23c4c5ccc(O)c4O[C@@H]2/C(=N/N=C2\CC[C@@]4(O)C6Cc7ccc(O)c8c7[C@@]4(CCN6CC=C)[C@@H]2O8)CC[C@@]3(O)C1C5 | inconclusive: 8.91 µM [fluorescent, side channel, partial curve] |  |
| CN1C2CCC1CC(OC(c1ccccc1)c1ccc(Cl)cc1)C2 (configuration not stated) | inconclusive: 5.62 µM [fluorescent, side channel, full curve] |  |
| COC(=O)C(C)Oc1cc(C)cc2oc(=O)c3c(c12)CCC3 (configuration not stated) |  | inactive: -14.4% |
| CN(C(=O)COc1nc2ccccc2s1)c1ccccc1 | inconclusive: 10 µM [inhibitor, partial curve] |  |
| COc1ccccc1-n1c(-c2ccccc2Br)nc2ccccc2c1=O | inconclusive: 39.8 µM [inhibitor, single point] |  |
| CC(=O)OC1C2CCCC1C(N1CCCC1)CC2 (configuration not stated) | inconclusive: 0.631 µM [inhibitor, full curve, poor fit] |  |
| Cc1ccc(-n2cc(CNC(C)Cc3cnccn3)c(-c3cccc(C)c3)n2)cc1 (configuration not stated) | inconclusive: 1.58 µM [inhibitor, partial curve] |  |
| Cc1nc(-c2ccc(-c3ccc(C(=O)N4CCc5cc6c(cc54)C4(CCN(C)CC4)CO6)cc3)c(C)c2)no1 | inconclusive: 7.94 µM [fluorescent, side channel, full curve] and inconclusive: 3.55 µM [fluorescent, side channel, full curve] |  |
| COc1cccc([C@@]2(O)CCCCC2CN(C)C)c1 (some centres not stated) | inactive |  |
| N#CCCn1cc(C(=O)Nc2ccccc2Br)c(-c2ccc([N+](=O)[O-])cc2)n1 | inconclusive: 12.6 µM [quencher, side channel, partial curve] |  |
